The text below walks through data of ChEMBL document CHEMBL4888484, “Replenishing the malaria drug discovery pipeline: Screening and hit evaluation of the MMV Hit Generation Library 1 (HGL1) against asexual blood stage Plasmodium falciparum ,using a nano luciferase reporter read-out” (2022).

In all, about 150,000 compounds went through this assay and about 540 (0.36%) showed an effect of 50% or more. Some of the results follow.

This assay concerns Plasmodium falciparum. The assay is described as follows: Primary screen in NF54 nanoGlo assay, in single point, at 2uM, 72h; a lower Z score goes with more inhibition. Type of assay: functional, Erythrocyte. To be noted: timepoint 72 hour.
A word on the % Inhibition: it is the relative decrease from the control value, in per cent. As to `O=C([C@@H]1CCCCN1S(=O)(=O)c1cc(F)cc(F)c1)N1CCOCC1`, the “% Inhibition” value is -6% and the Z score is 1.08.

In the case of `Cc1nc2c([nH]1)CN(C[C@H](O)c1ccccc1)CC2`, the “% Inhibition” value is -12% and the Z score is recorded as 1.19.

Take `Cc1cccc(N(C)S(=O)(=O)c2c(C)sc(C)c2-c2cc(C)no2)c1`: the “% Inhibition” value is reported as -13% and the Z score is 2.24.

On to `Cc1csc(N(CCc2ccccc2)C(=O)CC(C)(C)c2ccccc2)n1`, for which the “% Inhibition” value is -7% and the Z score was determined as 1.25.

Regarding `C[C@@]1(O)CCN(Cc2cccc(F)c2)[C@@H](c2cccs2)[C@@H]1NC(=O)C1CCCC1`, the “% Inhibition” value is reported as -9% and the Z score amounted to 1.45.

As to `Cc1ncc(CNC(=O)C(=O)Nc2cccc(C#N)c2)s1`, the “% Inhibition” value was -2% and the Z score is recorded as 0.33.

With `Clc1ccc2nc(OCc3ccccc3Cl)c(N3CCOCC3)c(-c3ccccc3)c2c1`, the “% Inhibition” value is given as -1% and the Z score is reported as 0.14.

Consider `O=C(c1cc2ccncc2s1)N1CCC[C@@]12CCOC2`, for which the “% Inhibition” value amounted to 0% and the Z score is -0.01.

With `O=C(CCc1nnn2c1CN(S(=O)(=O)c1ccccc1)CC2)N1CCOCC1`, the “% Inhibition” value is recorded as -11% and the Z score is listed as 2.07.

For `Cc1ccc2cc(C(=O)OCc3nccn3C)ccc2n1`, the “% Inhibition” value is -14% and the Z score amounted to 2.35.

Turning to `CNC(=O)[C@H]1CC[C@H](CNc2ncc(C)c(N(C)C)n2)CC1`, the “% Inhibition” value is listed as 4% and the Z score is listed as -0.83.

As for `O=C([C@H]1C[C@@H]1c1ccccc1)N1CC(Oc2ccccc2)C1`, the “% Inhibition” value is -15% and the Z score is on record as 2.69.

In the case of `CCC1NC(=O)N(CCC2CCCCO2)C1=O` (configuration not stated), the “% Inhibition” value is recorded as -9% and the Z score came to 1.03.

Turning to `Cc1nc(CNC(=O)c2cccn2C)[nH]c1C`, the “% Inhibition” value stood at 4% and the Z score was -0.78.

For the molecule `Cc1cc(N[C@H]2CC[C@H](O)CC2)n2nc(C)cc2n1`, the “% Inhibition” value was -8% and the Z score was 1.17.

`O=S1(=O)C[C@@H]2CC[C@@H](C2)N1Cc1noc(-c2cccs2)n1`: the “% Inhibition” value was found to be 1% and the Z score is -0.17.

In the case of `Cc1csc(C2(NC(=O)c3c[nH]c(C)cc3=O)CCCCCC2)n1`, the “% Inhibition” value was 7% and the Z score is given as -0.56.

As for `CCS(=O)(=O)N1CCC[C@](CCOC)(c2noc(C)n2)C1`, the “% Inhibition” value was -10% and the Z score came to 1.6.

`COCCN(CC(N)=O)CC(=O)NCc1ccccc1F`: the “% Inhibition” value stood at 36% and the Z score is on record as -4.8.

In the case of `Cc1noc(C(F)(F)F)c1C(=O)NCC1(C2(O)CCC2)CC1`, the “% Inhibition” value was -10% and the Z score is 1.69.

For `CC[C@@H](C(=O)N1CCCN(c2nc3ccccc3c3nnc(-c4cccc(C)c4)n23)CC1)c1ccccc1`, the “% Inhibition” value was -12% and the Z score amounted to 1.53.

As for `CCCc1nnc(N2CCN(C3CC3)C(=O)C2)s1`, the “% Inhibition” value amounted to 4% and the Z score is given as -0.57.

Regarding `CC(N)C1CCCCN1C(=O)c1cccc2c1OCO2` (configuration not stated), the “% Inhibition” value is given as -10% and the Z score is listed as 1.49.

As to `Cc1cccc2oc(CNC(=O)COCC(F)(F)C(F)F)nc12`, the “% Inhibition” value was -18% and the Z score was 3.01.

On to `c1cc(C2(c3noc(-c4cc(C5CC5)on4)n3)CCC2)ccn1`, for which the “% Inhibition” value is reported as -5% and the Z score is recorded as 0.87.

In the case of `CC(=O)N(c1cccc(F)c1)C1CCCC1`, the “% Inhibition” value is 34% and the Z score is listed as -3.82.

As to `CC1CC(O)CN1c1ccc(C(N)=O)cn1` (configuration not stated), the “% Inhibition” value is -7% and the Z score came to 1.19.

For `CC(C)(C)OC(=O)NC[C@H]1CCN(C(=O)c2ccc3[nH]cnc3c2)C1`, the “% Inhibition” value was -11% and the Z score came to 2.09.

`Cc1csc2c(N3CC[C@H](N4CCCC4)C3)ncnc12`: the “% Inhibition” value was -6% and the Z score was found to be 0.93.

For `Cc1nn(Cc2ccccc2Cl)c2nc(C3CCOCC3)[nH]c12`, the “% Inhibition” value is 6% and the Z score is given as -1.25.

For `Cc1noc(C)c1CCC(=O)N1CC(OCc2ccccc2)C1`, the “% Inhibition” value is reported as -10% and the Z score is reported as 1.42.

As to `O=C(O)[C@@H]1CCCN1C(=O)COCc1ccccc1`, the “% Inhibition” value is -6% and the Z score is 0.88.

Take `CCc1ccc(S(=O)(=O)Nc2cccc(-c3ccc(N4CCC(C)CC4)nn3)c2)cc1`: the “% Inhibition” value is reported as -7% and the Z score is on record as 0.95.

Regarding `CCN1c2cc(C(=O)N3CCCCC3)ccc2C(=O)N2CCCCC[C@H]21`, the “% Inhibition” value stood at 32% and the Z score is on record as -4.56.

Take `CCOC(=O)c1cc(NC(=O)CN(C)C(C)C)c[nH]1`: the “% Inhibition” value is given as -12% and the Z score is 1.78.

As to `CC(C)Oc1ccccc1CN1CCC[C@H](N(CCN2CCCCC2)S(C)(=O)=O)C1`, the “% Inhibition” value is given as -1% and the Z score is reported as 0.1.

Consider `Cn1nnc2c1CCC(NC(=O)NC1CC(=O)N3CCCCC13)C2` (configuration not stated), for which the “% Inhibition” value is on record as -8% and the Z score is recorded as 1.35.

`Cc1cc(C)cc(-n2nc(CC(N)=O)nc2-c2cc(=O)n(C)c(=O)n2C)c1`: the “% Inhibition” value worked out at 6% and the Z score is reported as -1.11.

Turning to `COc1ccc(OC)c(NC(=O)CC(C)C2CCCNC2)c1` (configuration not stated), the “% Inhibition” value was -1% and the Z score is on record as 0.16.

`Cc1csc(NC(=O)C2CCOCC2)n1`: the “% Inhibition” value was -9% and the Z score is 1.77.

As for `N[C@@H](CNc1ncc(Cl)cc1Br)C1CC1`, the “% Inhibition” value was -3% and the Z score was 0.46.

Regarding `CC(C)(C(=O)NC[C@H]1CCCC1(F)F)c1c[nH]cn1`, the “% Inhibition” value is given as 0% and the Z score was -0.04.

With `N#CC1(NC(=O)c2cc(-c3cccnc3)nc3onc(C4CC4)c23)CC1`, the “% Inhibition” value is on record as -11% and the Z score was found to be 1.36.

Take `CCc1ccc(-c2nc(C)c(C(=O)N3CC[C@H](N)C3)s2)cc1`: the “% Inhibition” value is -11% and the Z score is given as 1.19.

Turning to `O=C(NCc1ccc(C(=O)N2CCOCC2)cc1)c1ccc(F)cc1F`, the “% Inhibition” value is recorded as -6% and the Z score worked out at 0.78.

In the case of `O=C(O)CN1CCN(Cc2ccccc2)C2(CCCCC2)C1`, the “% Inhibition” value is on record as -8% and the Z score amounted to 0.85.

On to `Cc1c(C#N)c2ncnc(NCCCN3CCOCC3)c2n1-c1ccccc1`, for which the “% Inhibition” value is 2% and the Z score was -0.35.

In the case of `CCN1CCC[C@@H]1Cn1ncc(N(C)C)cc1=O`, the “% Inhibition” value is given as -7% and the Z score came to 0.7.

With `Cc1nc(CCNC(=O)NC2CCCC2)no1`, the “% Inhibition” value is recorded as -12% and the Z score is given as 1.48.

For `COCCC[C@H]1CCCN(c2nc(CO)cs2)C1`, the “% Inhibition” value is -5% and the Z score is on record as 0.92.

Regarding `O=C(CC1CCCC1)N[C@@H](Cc1ccccc1)c1ccccc1`, the “% Inhibition” value is -12% and the Z score was determined as 1.67.

With `CC(C)c1ccc(NC(=O)CC[C@@H]2N=C(O)N(Cc3ccccc3)C2=O)cc1`, the “% Inhibition” value is 5% and the Z score is given as -0.63.

For the molecule `Cc1ccn(CC(=O)NC[C@H](O)C(=O)OCc2ccccc2)n1`, the “% Inhibition” value is listed as -4% and the Z score is reported as 0.44.

As to `Fc1ccc(CNc2nc(-c3ccsc3)ns2)cc1`, the “% Inhibition” value was -9% and the Z score came to 0.9.

Regarding `COC1CCN(C2CN(C(=O)c3ccc(Cl)s3)C2)CC1`, the “% Inhibition” value was -8% and the Z score amounted to 1.54.

On to `Cc1cc(C(=O)N2CCN(Cc3ccccc3)C3(CCCCC3)C2)nn1C`, for which the “% Inhibition” value is -6% and the Z score was determined as 1.02.
